± gives the standard deviation of the averaged measurements. This is one part of the list.
Tested on: PfAP2-G AP2 domain (GST-tagged)
Assay: gcPBM binding intensity (ln(normalized median fluorescence intensity)); higher = stronger DNA binding
Procedure, shortened: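 The highest Masliner-normalised natural-log median intensity across replicate spots of either probe orientation is reported as binding intensity. GST-tagged P. falciparum DNA-binding domains expressed in E. coli were applied for 1 h to an Agilent 4 × 180k array of primer-extended double-stranded 36-bp intergenic genomic probes plus negative controls, and bound protein was detected with Alexa488 anti-GST antibody and scanned at 488 nm.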

Sequence | gcPBM binding intensity (ln)
GACTTCTCCATATACACACACCAACAAATATAAAAA [CACACA_site7331] | 10.4 ± 0.5
CATAATATTAAATCAGTGCAAATATACAGAATAAAT [GTGCAC_site9786] | 9.97 ± 0.13
ACATATACATACATATGTACATATACATAAATATAT [XGTACX_site1285] | 11.2 ± 0.57
ATATTTATGTAATGTTTGATTTTTTTTTTATGTGTG [CACACA_negctrl_site1422] | 9.745 ± 0.035
ATAATATGTTATTAAGTGCATATTAATTATTATTAT | 9.89 ± 0.18
AATTTTTCTTTTTTTTGTACAGAATATATATTTTAT [XGTACX_site1419] | 10.8 ± 0.3
TATATATATCTTTTGGTGCATATTTCGAATATATGT | 10.1 ± 0.14
AAAAAAAAAATTGAAAGTACACAAATGGGGTATTAT [XGTACX_site3960] | 11.5 ± 0.87
TACTGTTTAAAATATACACACATAATCAAAAAAAAA [CACACA_site2510] | 10 ± 0.24
TATATATTTACATATTGTACAATATAAAAATAATTA [XGTACX_site19] | 10.9 ± 0.49
TCGTTATCCATCTTCACACATATATATAGTAATATA [CACACA_site5492] | 10.2 ± 0.16
AAATTCAAACAAATTACACACATTTTTTTTTAATTT [CACACA_site3596] | 9.985 ± 0.021
AACCCCAAGCCGTACTGTACATATATTTTTATTTTA [XGTACX_site142] | 11.3 ± 0.74
AAAAGTTGTATTTGCACACATAAAAAAAAGATATTA [CACACA_site3840] | 10.2 ± 0.23
TCAAAGGAATTTTTATGTACATATAAACTTTATTCT [XGTACX_site3432] | 11.2 ± 0.76
AAAAAAAAAAAAAAATGTACATATATATTTATATAT [XGTACX_site229] | 11.1 ± 0.78
AGTATAAAATTTGGTTGTACATTTTTAAAAAAATTA [XGTACX_site7519] | 11.1 ± 0.69
AAAATTAAATTATTTACACACAATATTAAAATATTT [CACACA_site3244] | 9.76 ± 0.16
TAAAATCAATGTTCTTGTACTTAAAATGTTTGTTCT [XGTACX_site5490] | 11 ± 0.57
ATATATCTATATAGAAATGTATATATATATATGTGT [TGCATGCA_negctrl_site349] | 10.2 ± 0.15
TATTATTCTACTATTATATTCTATATTATTTATAGT [CACACA_negctrl_site499] | 9.71 ± 0.17
ACAATATATTTTTGAGCATGCGCAAAAGAGAATGCA [TGCATGCA_site566] | 9.91 ± 0.11
ATCCAAAAGAAAAATAGTACAGATATGAACAATATG [XGTACX_site6944] | 11.3 ± 0.65

Sequence | gcPBM binding intensity (ln)
TATAATATAAAAAAAAGTACACGAATTTTTTTTCAG [XGTACX_site6105] | 11.5 ± 0.96
AAATAAATTTGACCAGTGCAATAACTTTGTATACCT [GTGCAC_site9446] | 10.5 ± 0.35
TACATTTTATGCATTTGTACACAAATAAATAAATAA [XGTACX_site2652] | 11.2 ± 0.81
TTATGCAAAAATAAATCAATATGTTGATATGTAAAT [GTGCAC_negctrl_site128] | 9.78 ± 0.19
AACATATACTGTTTATGTACACATTGTTATATTAAT [XGTACX_site4276] | 11.4 ± 0.75
ATATAATTTAATTTCTGTACATAAGAGAAAAAACAA [XGTACX_site4865] | 11.1 ± 0.64
CTCTTCCTTAATTTTTGTACTTAAAATTTTTTTTTT [XGTACX_site1628] | 11.2 ± 0.73
AAAGAAAAAAAAAAAACACACAAAAAAAATCAAAAT [CACACA_site2871] | 9.77 ± 0.057
TTTTTTTTTTTTTATACACACATTAAAATAAAAAAG [CACACA_site3946] | 10.2 ± 0.41
ATATCAATTTTTGGTGGTACGTAGGAAGTTTCAGAA [XGTACX_site6881] | 11.2 ± 0.74
ACTTTAAAAAGATTCACACAAAATATATAAAAATAT [CACACA_site5334] | 9.875 ± 0.064
TACCTATAAAAGTACACACACACACGGATATAAATA [CACACA_site6569] | 11.5 ± 1
ACTATAAATATATACACATGCGCACACACAAGTGGG [TGCATGCA_site432] | 10.5 ± 0.17
ATTGATCTTTATTGTTGTACATTAAACGTTAATTTT [XGTACX_site1788] | 11.2 ± 0.83
AACATTCTATGTTGCACACAAAGAGAAAAATTTATT [CACACA_site3995] | 10.15 ± 0.035
TGAAGGAATACAGCTCGTACATGTGTAAAGAGATAA [XGTACX_site500] | 10.8 ± 0.35
TAATTTAAATGATGTAGTACATATAAATATATCTAA [XGTACX_site262] | 11.5 ± 0.76
AAAAAGAAAAAACTTACACACATATATACCCCCATG [CACACA_site4463] | 11 ± 0.57
TATTATATAATTTTAACACACAAGAATATAAACTTT [CACACA_site1363] | 9.915 ± 0.049
TAACAAAATGTAAATAAACACACATATATATATATA [CACACA_site8352] | 9.89 ± 0.36
ATGGAAATTTTATCATGTACATATACCGTTGAATAA [XGTACX_site5420] | 11.2 ± 0.67
AATAAAAAAATTAAAATTAAAAAATTAAAACTTAAA [CACACA_negctrl_site987] | 9.3 ± 0.23
